Results: PubChem BioAssay AID686979 (National Center for Advancing Translational Sciences (NCATS), 2013)
Where “and” joins values, the source holds several entries; their conditions need not be identical. Equal values may be shown once. Hit rate of the full screen: of about 420,000 compounds, about 50,000 (12%) were called active. The inconclusive results got no clear call from the source; some entries with a clear call stand among them for comparison. Calls come from the whole dose curve; as a rule, active = well fitted inhibition curve with a large enough effect; inconclusive = small, poorly fitted or top-dose-only effect; inactive = flat fitted curve, though single readings scatter. A potency beside an inconclusive call is a rough fit, not a confirmed value.

test: qHTS for Inhibitors of human tyrosyl-DNA phosphodiesterase 1 (TDP1): qHTS in cells in presence of CPT; conditions: chicken DT40 Tdp1-/-;hTDP1 cells + 20 nM CPT, ATP luminescence, 48 h; activity change, negative = growth inhibition: at 46.2 µM (top of the series) unless noted; note: nearly all actives have a fitted effect of over 55% in size
How it was run: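 Cell growth measured by CellTiter-Glo luminescence after a minimum 48 h, 37 C compound exposure with 20 nM CPT in Tdp1-knockout DT40 cells stably expressing hTDP1, seeded 400/well; qHTS titration format.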
% is set by controls: 0 for no effect and ±100 for the full control effect; potency is the fitted concentration of half-maximal effect; tags give direction and shape of the fitted curve.

Row | Compound | Potency | activity change, negative = growth inhibition
1 | Cc1nc2cc(-c3ccccc3)nn2c(C)c1CCC(=O)NCCc1ccccc1 | active: 16.4 µM | –
2 | c1ccc(C2(CN3CCNC[C@H]3Cc3cccc4ccccc34)CC2)cc1 | inconclusive: 29.1 µM [inhibitor, single point] | –
3 | C[C@H](CO)N1C[C@H](C)[C@@H](CN(C)S(=O)(=O)c2cccs2)Oc2c(NC(=O)NC3CCCCC3)cccc2C1=O | inconclusive: 29.1 µM [inhibitor, single point] | –
4 | Cc1ccc(S(=O)(=O)Nc2ccc3c(c2)C(=O)N([C@H](C)CO)C[C@@H](C)[C@@H](CN(C)C(=O)Nc2cccc4ccccc24)O3)cc1 | active: 20.6 µM | –
5 | N#C/C(=C/c1ccc(N2CCCCC2)o1)C(=O)Nc1ccc(Cl)cc1 | inconclusive: 23.1 µM [inhibitor, single point] | –
6 | Cc1cnnn1-c1ccc(C(=O)CCl)cc1 | active: 2.31 µM | –
7 | Cc1cccc(N2CCN(C(=O)N3CCOCC3)CC2)c1C | inconclusive: 25.9 µM [inhibitor, partial curve, poor fit] | –
8 | COc1cccc(NC(=O)C2CC2)c1 | active: 5.8 µM | –
9 | COc1ccc(Nc2cc(C(=O)NCCCN(C)c3ccccc3)c3ccccc3n2)c(OC)c1 | active: 13 µM | –
10 | COc1ccc(CC(=O)Nc2ccc(-c3nc4ccccc4s3)cc2Cl)cc1OC | inconclusive: 25.9 µM [inhibitor, single point] | –
11 | C=CCOc1ccc(/C=N/NC(=O)C(C)Sc2ccccn2)cc1OC (stereo unspecified) | inactive | –
12 | Cc1cccc(C)c1NC(=O)c1c(C)oc2c1C1=NCCN1C=N2 | inconclusive: 16.4 µM [inhibitor, partial curve] | –
13 | CS(=O)(=O)Nc1cccc2[nH]ncc12 | inactive | –
14 | Cc1ccsc1/C=N/NC(=O)c1nnn(-c2nonc2N)c1-c1ccc2c(c1)OCO2 | inconclusive: 29.1 µM [inhibitor, single point] | –
15 | Cc1ccc2[nH]c(CSc3nnc(NC(=O)COc4ccccc4C)s3)cc(=O)c2c1 | – | inconclusive: -33.2% [inhibitor]
16 | CCCCn1c(=O)nc2n(-c3ccccc3)c3ccccc3cc-2c1=O | – | inconclusive: -32.8% [inhibitor]
17 | O=C(CSc1ccc(F)cc1)Nc1nnc(-c2ccco2)o1 | inconclusive: 10.3 µM [inhibitor, partial curve] | –
18 | CCOC(=O)c1ccc(Nc2nc(N)c3cc(OC)c(OC)cc3n2)cc1 | active: 7.31 µM | –
19 | COc1ccc(C(=O)N2CCCC(c3nc(-c4cccs4)no3)C2)cc1OC (stereo unspecified) | inactive | –
20 | O=C(Cn1cccc1)N1CCN(C(c2ccccc2)c2ccccc2)CC1 | inconclusive: 35.5 µM [inhibitor, partial curve] | –
21 | N#C/C(C(N)=O)=C1/SC=C(c2ccccc2)N1c1ccccc1 | inconclusive: 13 µM [inhibitor, single point] | –
22 | CN(C)CCCN(C(=O)c1ccc(S(=O)(=O)N2CCCCCC2)cc1)c1nc2cc3c(cc2s1)OCO3 | inconclusive: 25.9 µM [inhibitor, single point] | –
23 | CCCc1cc(=O)[nH]c(SCC(=O)NCCCC(=O)OCC)n1 | inactive | –
24 | CCOC(=O)/C(C#N)=C/c1cc(C)n(-c2ccccc2)c1C | active: 16.4 µM | –

Row | Compound | Potency | activity change, negative = growth inhibition
25 | O=C(CCC1CCCN(C(=O)CC2=CCCCC2)C1)N1CCN(c2ccccn2)CC1 (stereo unspecified) | inconclusive: 20.6 µM [inhibitor, single point] | –
26 | COc1ccc(/C=C2\SC(=S)N(CCC(=O)NC3CCCC3)C2=O)cc1OC | inconclusive: 29.1 µM [inhibitor, single point] | –
27 | Cc1cc(C(=O)N2CCCC(C)(C(=O)NS(=O)(=O)C3CC3)C2)n(C(C)(C)C)n1 (stereo unspecified) | active: 8.2 µM | –
28 | CC(C)Oc1ccc(S(=O)(=O)N2CCOCC2)cc1NC(=O)CSc1nnc(C2CC2)n1C | inactive | –
29 | COCCn1c(C2CCCCC2)nc2sc3ccccc3c(=O)c2c1=O | inconclusive: 29.1 µM [inhibitor, single point] | –
30 | CNc1nc(-c2ccccn2)nnc1-c1ccccc1 | inconclusive: 35.5 µM [inhibitor, single point] | –
31 | CCn1cc(C(=O)NCCCN2CCC(C)CC2)c(=O)c2cc(S(=O)(=O)N(C)C3CCCCC3)ccc21 | inconclusive: 20.6 µM [inhibitor, single point] and inconclusive: 16.4 µM [inhibitor, single point] | –
32 | Oc1ccccc1C=NCCCCCCN=Cc1ccccc1O | inactive | –
33 | COc1ccc(Cn2nnnc2C(c2cccnc2)N2CCN(c3ccc(O)cc3)CC2)cc1 (stereo unspecified) | inconclusive: 5.17 µM [inhibitor, full curve] | –
34 | Cc1cccc(OCC(=O)Nc2ccccc2N2CCCCC2)c1C | inconclusive: 29.1 µM [inhibitor, single point] | –
35 | O=C(CCCC(=O)N1CCN(c2ccc([N+](=O)[O-])cc2)CC1)c1ccccc1 | inconclusive: 4.61 µM [inhibitor, single point] | –
36 | Cc1ccnc2nc(C(=O)OCC(=O)NC(=O)NCc3ccco3)nn12 | inactive | –
37 | CCSc1sccc1C1C(C#N)=C(N)N(c2cccnc2)C2=C1C(=O)CCC2 (stereo unspecified) | inconclusive: 11.6 µM [inhibitor, partial curve] | –
38 | CCN(CC)CCN1CCn2c3c(c4cc(C)ccc42)CCCC31 (stereo unspecified) | inconclusive: 29.1 µM [inhibitor, single point] | –
39 | O=S(=O)(Nc1ccc(-c2ccc3nncn3n2)cc1)c1ccccc1Cl | inconclusive: 14.6 µM [inhibitor, partial curve] | –
40 | C#CCOc1ccc(CNC[C@H]2O[C@@H](n3cnc4c(N)ncnc43)[C@H](O)[C@@H]2O)cc1 | inconclusive: 20.6 µM [inhibitor, single point] | –
41 | CCCOc1ccc(C(F)(F)F)cc1NC(=O)C1CC(=O)N(Cc2ccco2)C1 (stereo unspecified) | inactive | –
42 | Cc1nn(C)c2c1c(-c1ccccc1)cc(=O)n2C(C)C(=O)NCCc1ccc(Cl)cc1 (stereo unspecified) | inconclusive: 29.1 µM [inhibitor, single point] | –
43 | CN1CCC[C@@H]1Cc1c[nH]c2ccc(CCS(=O)(=O)c3ccccc3)cc12 | inconclusive: 21.1 µM [inhibitor, single point] | –
44 | CC(=O)Nc1ccc(NC(=O)C(C)OC(=O)C(C)SCC(=O)Nc2ccc(C)cc2)cc1 (stereo unspecified) | inactive | –
45 | O=C(CSc1nnc(-c2cccnc2)n1Cc1ccco1)c1ccc(Cl)c(Cl)c1 | inconclusive: 9.2 µM [inhibitor, partial curve] | –
46 | COc1cccc(OCC(=O)O/N=C(\N)c2ccc(OC)c(OC)c2)c1 | inactive | –
47 | N[C@@H](CO)C(=O)O | inactive | –
48 | NS(=O)(=O)c1cccc(NC(=O)Cn2nc(C(=O)O)c3ccccc3c2=O)c1 | inactive | –

Row | Compound | Potency | activity change, negative = growth inhibition
49 | Cc1ccc(NC(=O)c2ccc(Cl)c(S(=O)(=O)N3CCCC3)c2)nc1 | inactive | –
50 | COc1ccc(S(=O)(=O)NCC(c2ccco2)N2CCN(c3ccccc3F)CC2)cc1OC (stereo unspecified) | inconclusive: 29.1 µM [inhibitor, single point] | –
51 | O=C(Nc1cccc2ncccc12)c1ccccc1[N+](=O)[O-] | inactive | –
52 | COC(=O)c1sccc1NC(=O)CC1C(=O)NCCN1C(=O)Nc1ccc(OCc2ccccc2)cc1 (stereo unspecified) | inconclusive: 29.1 µM [inhibitor, single point] | –
53 | c1ccc(Cn2c(Cn3c(-c4cnccn4)nc4ccccc43)nc3ccccc32)cc1 | active: 25.9 µM | –
54 | Cc1cc(NC(=O)COn2nnc3ccc(S(C)(=O)=O)cc32)ccc1Br | inconclusive: 29.1 µM [inhibitor, single point] | –
55 | O=C1c2ccccc2C(=O)C1c1nccc2ccccc12 | active: 10.3 µM | –
56 | CCOc1ccccc1OCCCC(=O)NC1CCCc2ccccc21 (stereo unspecified) | inconclusive: 20.6 µM [inhibitor, partial curve] | –
57 | COc1cc2c(cc1OC)C(COc1ccc([N+](=O)[O-])cc1)NCC2 (stereo unspecified) | inactive | –
58 | O=C(N/N=C/c1cccnc1)c1ccc2c(c1)OCCO2 | inactive | –
59 | O=C(NCc1cccnc1)c1cc(C2CCCN(C(=O)c3cccc(O)c3)C2)on1 (stereo unspecified) | inactive | –
60 | Cc1ccc(S(=O)(=O)c2cc(C)cc(S(=O)(=O)Nc3ccc(C(=O)O)cc3)c2C)cc1 | inactive | –
61 | O=C(CC(Nc1ccc(F)cc1)C(=O)O)c1ccccc1 (stereo unspecified) | inconclusive: 29.1 µM [inhibitor, single point] | –
62 | CCOc1cc(/C=N/NC(N)=O)ccc1OCC(=O)Nc1ccc(C)c(C)c1 | active: 20.6 µM | –
63 | O=C(NC1CCCCC1)c1cccc(N2C(=O)CCC2=O)c1 | inactive | –
64 | CN(C)S(=O)(=O)c1cccc(C(=O)Nc2ccc(C(=O)Nc3cccc(S(N)(=O)=O)c3)cc2)c1 | inactive | –
65 | Cc1ccc2nc(-c3ccccc3)c(Cc3cccc(F)c3)n2c1 | inconclusive: 20.6 µM [inhibitor, single point] | –
66 | O=C1[C@H](Cc2ccccc2)NCC=CC[C@H](c2ccc(Cl)cc2)N1Cc1ccc(Cl)cc1 | active: 23.1 µM | –
67 | COc1cc(-c2nc3ccccc3nc2-c2ccc(O)c(OC)c2)ccc1O | inconclusive: 29.1 µM [inhibitor, single point] | –
68 | CCN1CCN(c2ccc(N3CCN(C(=O)c4ccc(Br)o4)CC3)nn2)CC1 | inconclusive: 29.1 µM [inhibitor, single point] | –
69 | CC1CCN(C(=O)c2ccccc2NC(=O)c2nsc3ccccc23)CC1 | inactive | –
70 | COc1ccc(NC(=O)c2cc(-c3cc(F)ccc3OC(C)C)n[nH]2)c(OC)c1 | inconclusive: 29.1 µM [inhibitor, single point] | –
71 | CCC(C)c1ccc2oc(-c3ccc(NC(=O)Cn4cnc5c(=O)n(C)c(=O)n(C)c54)cc3)nc2c1 (stereo unspecified) | active: 20.6 µM | –
